# Results as given in the supplement of paper PMC8728848.
# This is one part of the list.
# B1: Banana lectin (Musa acuminata) (protein)
# chain: MNGAIKVGAHGGNGGSAFDMGPAYRIISVKIFSGDVVDGVDVTFTYYGKTETRHYGGSGGTPHEIVLQEGEYLVGMAGEVANYHGAVVLGKLGFSTNKKAYGPFGNTGGTPFSLPIAAGKISGFFGRGGKFLDAIGVYLEPLEHHHHHH
# Assays:
# Test in all cases: glycan array binding signal (z-score within array); higher = stronger binding
# Conditions in all cases: glycan notation: IUPAC condensed, linker removed; mutation: W10H
# [1] = biological target: Fuc(a1-2)Gal
# Procedure, shortened: (§1)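 Arrays were curated from the Consortium for Functional Glycomics database, 3228 in total, and kept only where the protein sequence was available. Binding is expressed as a within-array Z-score. This score was averaged across arrays of the same protein sequence at different concentrations or buffers and across linkers, and negative values can be read as non-binding.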
# [2] = biological target: Fuc(a1-2)Gal(b1-3)GalNAc
# Procedure, shortened: as §1
# [3] = biological target: Fuc(a1-2)Gal(b1-3)GalNAc(a1-3)[Fuc(a1-2)]Gal(b1-4)Glc
# Procedure, shortened: as §1
# [4] = biological target: Fuc(a1-2)Gal(b1-3)GalNAc(a1-3)[Fuc(a1-2)]Gal(b1-4)GlcNAc
# Procedure, shortened: as §1
# [5] = biological target: Fuc(a1-2)Gal(b1-3)GalNAc(b1-3)Gal
# Procedure, shortened: as §1
# [6] = biological target: Fuc(a1-2)Gal(b1-3)GalNAc(b1-3)Gal(a1-4)Gal(b1-4)Glc
# Procedure, shortened: as §1
# [7] = biological target: Fuc(a1-2)Gal(b1-3)GalNAc(b1-4)[Neu5Ac(a2-3)]Gal(b1-4)Glc
# Procedure, shortened: as §1
# [8] = biological target: Fuc(a1-2)Gal(b1-3)GlcNAc
# Procedure, shortened: as §1
# [9] = biological target: Fuc(a1-2)Gal(b1-3)GlcNAc(b1-2)Man(a1-3)[Fuc(a1-2)Gal(b1-3)GlcNAc(b1-2)Man(a1-6)]Man(b1-4)GlcNAc(b1-4)GlcNAc
# Procedure, shortened: as §1
# [10] = biological target: Fuc(a1-2)Gal(b1-3)GlcNAc(b1-2)Man(a1-3)[Fuc(a1-2)Gal(b1-3)GlcNAc(b1-2)Man(a1-6)]Man(b1-4)GlcNAc(b1-4)[Fuc(a1-6)]GlcNAc
# Procedure, shortened: as §1
# [11] = biological target: Fuc(a1-2)Gal(b1-3)GlcNAc(b1-3)Gal(b1-4)Glc
# Procedure, shortened: as §1
# [12] = biological target: Fuc(a1-2)Gal(b1-3)GlcNAc(b1-3)GalNAc
# Procedure, shortened: as §1
# [13] = biological target: Fuc(a1-2)Gal(b1-3)GlcNAc(b1-3)[Fuc(a1-2)Gal(b1-3)GlcNAc(b1-6)]GalNAc
# Procedure, shortened: as §1
# [14] = biological target: Fuc(a1-2)Gal(b1-3)GlcNAc(b1-3)[Gal(b1-4)GlcNAc(b1-6)]Gal(b1-4)Glc
# Procedure, shortened: as §1
# [15] = biological target: Fuc(a1-2)Gal(b1-3)GlcNAc(b1-3)[Neu5Ac(a2-6)Gal(b1-4)GlcNAc(b1-6)]Gal(b1-4)Glc
# Procedure, shortened: as §1
# [16] = biological target: Fuc(a1-2)Gal(b1-3)GlcNAc6S
# Procedure, shortened: as §1
# [17] = biological target: Fuc(a1-2)Gal(b1-3)[Fuc(a1-4)]GlcNAc
# Procedure, shortened: as §1
# [18] = biological target: Fuc(a1-2)Gal(b1-3)[Fuc(a1-4)]GlcNAc(b1-2)Man(a1-3)[Fuc(a1-2)Gal(b1-3)[Fuc(a1-4)]GlcNAc(b1-2)Man(a1-3)]Man(b1-4)GlcNAc(b1-4)GlcNAc
# Procedure, shortened: as §1
# [19] = biological target: Fuc(a1-2)Gal(b1-3)[Fuc(a1-4)]GlcNAc(b1-2)Man(a1-3)[Fuc(a1-2)Gal(b1-3)[Fuc(a1-4)]GlcNAc(b1-2)Man(a1-6)]Man(b1-4)GlcNAc(b1-4)[Fuc(a1-6)]GlcNAc(b1-4)[Fuc(a1-6)]GlcNAc
# Procedure, shortened: as §1
# [20] = biological target: Fuc(a1-2)Gal(b1-3)[Fuc(a1-4)]GlcNAc(b1-3)[Fuc(a1-3)[Gal(b1-4)]GlcNAc(b1-6)]Gal(b1-4)Glc
# Procedure, shortened: as §1
# [21] = biological target: Fuc(a1-2)Gal(b1-3)[Fuc(a1-4)]GlcNAc(b1-3)[Gal(b1-4)GlcNAc(b1-6)]Gal(b1-4)Glc
# Procedure, shortened: as §1
# [22] = biological target: Fuc(a1-2)Gal(b1-4)Fuc(a1-3)]GlcNAc(b1-2)Man(a1-3)[Fuc(a1-2)Gal(b1-4)[Fuc(a1-3)]GlcNAc(b1-2)Man(a1-6)]Man(b1-4)GlcNAc(b1-4)GlcNAc
# Procedure, shortened: as §1
# [23] = biological target: Fuc(a1-2)Gal(b1-4)Glc
# Procedure, shortened: as §1
# [24] = biological target: Fuc(a1-2)Gal(b1-4)Glc6S
# Procedure, shortened: as §1
# [25] = biological target: Fuc(a1-2)Gal(b1-4)GlcNAc
# Procedure, shortened: as §1
# [26] = biological target: Fuc(a1-2)Gal(b1-4)GlcNAc(b1-2)Man
# Procedure, shortened: as §1
# [27] = biological target: Fuc(a1-2)Gal(b1-4)GlcNAc(b1-2)Man(a1-3)[Fuc(a1-2)Gal(b1-4)GlcNAc(b1-2)Man(a1-6)]Man(b1-4)GlcNAc(b1-4)GlcNAc
# Procedure, shortened: as §1
# [28] = biological target: Fuc(a1-2)Gal(b1-4)GlcNAc(b1-2)Man(a1-3)[Fuc(a1-2)Gal(b1-4)GlcNAc(b1-2)Man(a1-6)]Man(b1-4)GlcNAc(b1-4)[Fuc(a1-6)]GlcNAc
# Procedure, shortened: as §1
# [29] = biological target: Fuc(a1-2)Gal(b1-4)GlcNAc(b1-2)[Fuc(a1-2)Gal(b1-4)GlcNAc(b1-4)]Man(a1-3)[Fuc(a1-2)Gal(b1-4)GlcNAc(b1-2)Man(a1-6)]Man(b1-4)GlcNAc(b1-4)GlcNAc
# Procedure, shortened: as §1
# [30] = biological target: Fuc(a1-2)Gal(b1-4)GlcNAc(b1-3)Gal(b1-4)GlcNAc
# Procedure, shortened: as §1
binder,measurement,setting,value
B1,glycan array binding signal (z-score),[1],-0.166
same,glycan array binding signal (z-score),[2],-0.184
same,glycan array binding signal (z-score),[3],-0.171
same,glycan array binding signal (z-score),[4],-0.179
same,glycan array binding signal (z-score),[5],-0.142
same,glycan array binding signal (z-score),[6],-0.164
same,glycan array binding signal (z-score),[7],-0.17
same,glycan array binding signal (z-score),[8],-0.138
same,glycan array binding signal (z-score),[9],0.104
same,glycan array binding signal (z-score),[10],-0.086
same,glycan array binding signal (z-score),[11],-0.172
same,glycan array binding signal (z-score),[12],-0.181
same,glycan array binding signal (z-score),[13],-0.199
same,glycan array binding signal (z-score),[14],-0.184
same,glycan array binding signal (z-score),[15],-0.165
same,glycan array binding signal (z-score),[16],-0.135
same,glycan array binding signal (z-score),[17],-0.188
same,glycan array binding signal (z-score),[18],-0.155
same,glycan array binding signal (z-score),[19],-0.096
same,glycan array binding signal (z-score),[20],-0.176
same,glycan array binding signal (z-score),[21],-0.177
same,glycan array binding signal (z-score),[22],-0.064
same,glycan array binding signal (z-score),[23],-0.185
same,glycan array binding signal (z-score),[24],-0.192
same,glycan array binding signal (z-score),[25],-0.172
same,glycan array binding signal (z-score),[26],-0.167
same,glycan array binding signal (z-score),[27],0.05
same,glycan array binding signal (z-score),[28],-0.003
same,glycan array binding signal (z-score),[29],-0.097
same,glycan array binding signal (z-score),[30],-0.151
